The campaign covered roughly 310,000 compounds. About 2,200 (0.71%) showed an effect of 50% or more. Effects have a minus sign here. This is one part of the list.
Molecular target: human ether-à-go-go-related gene (hERG) potassium channel (human, UniProt Q12809)
Experiment: primary screen, population patch clamp on CHO cells stably expressing hERG

Sequence of human ether-à-go-go-related gene (hERG) potassium channel (Q12809 whole entry, looked up): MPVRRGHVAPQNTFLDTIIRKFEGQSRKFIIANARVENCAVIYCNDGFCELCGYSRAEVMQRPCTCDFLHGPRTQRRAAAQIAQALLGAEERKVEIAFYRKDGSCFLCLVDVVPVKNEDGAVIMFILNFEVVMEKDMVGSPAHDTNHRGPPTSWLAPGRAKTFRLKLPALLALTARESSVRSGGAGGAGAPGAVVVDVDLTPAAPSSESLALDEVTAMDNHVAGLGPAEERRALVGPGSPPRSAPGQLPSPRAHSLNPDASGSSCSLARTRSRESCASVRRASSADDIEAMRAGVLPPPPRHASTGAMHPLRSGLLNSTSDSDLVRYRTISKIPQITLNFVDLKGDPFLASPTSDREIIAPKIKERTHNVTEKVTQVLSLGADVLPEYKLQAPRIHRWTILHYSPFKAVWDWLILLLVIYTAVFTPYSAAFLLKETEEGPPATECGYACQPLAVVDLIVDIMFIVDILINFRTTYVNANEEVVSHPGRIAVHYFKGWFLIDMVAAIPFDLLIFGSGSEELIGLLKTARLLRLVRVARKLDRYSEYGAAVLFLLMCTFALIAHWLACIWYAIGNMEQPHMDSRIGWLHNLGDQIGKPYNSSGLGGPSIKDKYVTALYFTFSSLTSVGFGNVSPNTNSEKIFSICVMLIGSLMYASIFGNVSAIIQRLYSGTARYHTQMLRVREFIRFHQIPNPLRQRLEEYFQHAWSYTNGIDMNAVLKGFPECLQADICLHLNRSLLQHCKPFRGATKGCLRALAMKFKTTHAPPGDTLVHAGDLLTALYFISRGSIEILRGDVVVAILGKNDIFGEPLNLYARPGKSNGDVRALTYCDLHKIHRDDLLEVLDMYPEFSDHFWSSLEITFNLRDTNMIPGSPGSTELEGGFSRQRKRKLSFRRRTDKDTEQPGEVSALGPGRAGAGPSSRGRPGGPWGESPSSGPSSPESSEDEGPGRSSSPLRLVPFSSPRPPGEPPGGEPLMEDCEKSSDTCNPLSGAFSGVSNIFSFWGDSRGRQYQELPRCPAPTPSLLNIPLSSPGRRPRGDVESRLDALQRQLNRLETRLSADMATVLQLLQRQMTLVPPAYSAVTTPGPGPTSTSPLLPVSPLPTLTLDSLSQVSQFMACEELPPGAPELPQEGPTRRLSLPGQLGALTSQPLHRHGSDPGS

Row | Structure (SMILES) | hERG current change (%, negative = inhibition) at 1uM [%]
1 | COc1ccc(S(=O)(=O)NCC(=O)N(CC(=O)NCC2CCCO2)c2c(C)cccc2C)cc1 (stereo not drawn) | 2.6
2 | O=[N+]([O-])c1ccc(Nc2ccc(F)cc2)cc1 | 11.4
3 | Nc1cccnc1-n1nc(C(F)(F)F)cc1C(F)(F)F | 10.2
4 | CC(=O)OCc1nc2sc(C)c(C)c2c(=O)[nH]1 | 9.88
5 | CN(C)c1cccc(C(=O)NCCCSc2ccccc2)c1 | 9.45
6 | CC1Sc2ccc(S(=O)(=O)N3CCC(C(=O)NCc4ccccc4)CC3)cc2NC1=O (stereo not drawn) | 14.8
7 | CC(=O)NC(=O)c1nnn(Cc2ccccc2)c1NC(C)=O | -6.28
8 | CC(=O)OCCC(NS(=O)(=O)OCC(Cl)(Cl)Cl)c1ccccc1 (stereo not drawn) | 7.28
9 | Cc1cc2nc(Cl)c(Cl)nc2cc1C | 5.62
10 | CNC(=S)N1CCc2ccccc2C1 | 2.88
11 | Cc1ccc(SCC2(O)CCN(S(=O)(=O)c3ccc(Cl)cc3)CC2)cc1 | 10.5
12 | COc1cccc(-c2nc(CS(=O)(=O)c3ccccc3)no2)c1 | 4.89
13 | CC(=O)N(c1ccc(N(C(C)=O)S(=O)(=O)c2cccs2)cc1)S(=O)(=O)c1cccs1 | -3.17
14 | CCCc1c(C)nc(SCC(=O)C(C)(C)C)nc1OC(=O)N(C)C | 4.84
15 | COc1cc(/C=C/C(=O)O)ccc1OS(=O)(=O)c1cc(Br)ccc1C | 5.12
16 | C#CCOc1ccc(C2C(C#N)=C(N)Oc3cc(O)ccc32)cc1 (stereo not drawn) | 11.8
17 | COc1ccc(C2CC(c3ccccc3)=NN2C(=O)CSc2nccc(=O)[nH]2)cc1 (stereo not drawn) | 3.56
18 | Cc1cc(C(=O)Nc2ccc3c(c2)OCCO3)ccc1[N+](=O)[O-] | 14.5
19 | CC1(C(=O)NCCOc2ccccc2Cl)CC1(Cl)Cl (stereo not drawn) | 9.93
20 | COc1cc(NS(=O)(=O)c2ccc(N/C=C\C(=O)c3ccc(C)cc3)cc2)nc(OC)n1 | 4.13
21 | CCOCCn1c(=NC(=O)CSCC(=O)N2CCOCC2)sc2cc(OC)ccc21 | 2.13
22 | O=[N+]([O-])c1ccccc1S(=O)(=O)Oc1ccc(C(=S)N2CCOCC2)cc1 | -15.3
23 | COc1cc(S(=O)(=O)Nc2c(C)cc(C)cc2C)ccc1Cl | 13.4

Row | Structure (SMILES) | hERG current change (%, negative = inhibition) at 1uM [%]
24 | Cc1cc(C)cc(N(CC(=O)NCc2ccccc2)C(=O)CCC(=O)Nc2ccccn2)c1 | 23.2
25 | O=c1cc(-c2ccc([N+](=O)[O-])cc2)c2cc3c(cc2[nH]1)OCCO3 | 9.87
26 | Cc1ccc(N2CCN(/N=C/c3ccccc3[N+](=O)[O-])CC2)cc1 | 4.87
27 | O=C1OCCC1Sc1nnc(-c2ccc(F)cc2)n1Cc1ccccc1 (stereo not drawn) | 3.07
28 | Cl.OC(COCc1ccc2c(c1)OCO2)CN1CCN(Cc2ccccc2)CC1 (stereo not drawn) | -8.65
29 | CC1Cc2ccccc2N1C1=CC(=O)CC(C)(C)C1 (stereo not drawn) | 7.36
30 | CN(C)C(=O)c1cn(-c2ccccc2)nc1-c1cccs1 | 4.9
31 | COc1ccc(Nc2nc(C(=O)NCCCN3CCOCC3)cs2)cc1 | 6.01
32 | O=C(COC(=O)c1c(F)cccc1F)Nc1ccc2[nH]c(=O)[nH]c2c1 | 12.3
33 | Cc1sc(NC(=O)c2ccco2)c(C(=O)c2ccc(Cl)cc2)c1C | 21.6
34 | CC(C)(C)c1cnnn1-c1ccc(/C=N/Nc2ccc([N+](=O)[O-])cc2)cc1 | 12
35 | CCOC(=O)N1CCN(Cc2cc(=O)oc3cc4c(cc23)CCC4)CC1 | -3.49
36 | CCOC(=O)N1CCN(C2OC(=O)c3ccccc32)CC1 (stereo not drawn) | 17.7
37 | Cc1cc(-c2ccn[nH]2)c(C)s1 | 11.4
38 | c1ccc2nc(N3CCOCC3)cnc2c1 | -0.824
39 | O=C(CNC(=O)c1ccc(F)cc1)c1ccccc1 | 6.52
40 | COC(=O)c1cccc(C(=O)Nc2ccc(F)cc2)n1 | 7.33
41 | Nc1cc(=O)[nH]c(SCC(=O)Nc2nnc(-c3ccccc3)s2)n1 | 19.8
42 | CC(=O)Nc1ccc(S(=O)(=O)N2CCN(C(=O)c3ncoc3-c3ccccc3C)CC2)cc1 | 18.8
43 | N#CCn1c(Cc2ccccc2)nc2ccccc2c1=O | 12.2
44 | O=S(=O)(Nc1ccc2c(c1)nc1n2CCN(Cc2ccccc2)C1)c1ccccc1 | 0.0679
45 | CCOc1ccc(NC(=O)CCNS(=O)(=O)c2cccs2)cc1 | 8.21
46 | COc1cc(Br)c(C(C)NC(=O)c2ccc(C)cc2)cc1OC (stereo not drawn) | 6.82

Row | Structure (SMILES) | hERG current change (%, negative = inhibition) at 1uM [%]
47 | c1coc(-c2nc3ccccc3nc2-c2ccco2)c1 | 6.35
48 | Cc1ccc(S(=O)(=O)N2CCN(C(=O)c3ccco3)CC2)c(C)c1 | 2.97
49 | C1CCN(c2c3c(nc4nnnn24)CCCC3)CC1 | 11.1
50 | O=C(Cn1c(=O)oc2ccccc21)N1CCN(S(=O)(=O)c2ccccc2)CC1 | -4.15
51 | O=C(NNC(=O)C1CC=CCC1)c1ccccc1Cl (stereo not drawn) | 14.4
52 | COc1cccc(S(=O)(=O)Nc2cccc(C(=O)N3CCOCC3)c2)c1 | 9.01
53 | CCC(Oc1ccccc1)C(=O)Nc1nnc(C)s1 (stereo not drawn) | -15.7
54 | CCCCn1c(N)c(N(CC)C(=O)c2ccncc2)c(=O)[nH]c1=O | 9.26
55 | CCc1ncc(C(O)c2cccc3ccccc23)n1C (stereo not drawn) | 9.12
56 | COc1cc(/C=C(\C#N)c2ccccn2)ccc1OCc1ccc(Cl)cc1 | 1.98
57 | O=C(Nc1ccccc1F)c1ccc(CN2CCN(c3ccccc3)CC2)cc1 | -31
58 | O=S(=O)(NCc1csc(-c2cccnc2)n1)c1ccc(Br)cc1 | 38.3
59 | Cc1c(C(=O)O)sc2nc(C)n(C)c(=O)c12 | 2.9
60 | COc1cccc2cc(C(C)N(CCCN3CCOCC3)C(=S)Nc3cccc(C)c3C)oc12 (stereo not drawn) | 7.83
61 | COc1ccc(CN(C)C(=O)c2ccncc2)c(OC)c1 | -1.92
62 | CCN(C(=O)CSc1nnc2nc(C)cc(C)n12)c1ccccc1 | 6.97
63 | COc1ccc(NC(C)=O)cc1CNC(=O)CN1CCOCC1 | 13.7
64 | CN(CC(=O)Nc1ccccc1C(F)(F)F)C(=O)COc1ncnc2ccccc12 | 6.86
65 | Cc1ccc(S(=O)(=O)N(CC(=O)NC2CCCCCC2)c2ccccc2F)cc1 | 2.82
66 | COc1cc(/C=C2\SC(=S)N(NC(=O)c3cccc(O)c3)C2=O)ccc1O | 12.9
67 | COc1ccc(NC(=S)Nc2cccc(C(F)(F)F)c2)c(C)c1 | 0.354
68 | COC(=O)c1cc2sc(Cl)cc2n1CC(=O)Nc1ccc(OC)c(OC)c1OC | -58.5
69 | O=C(CCNC(=O)c1ccccc1)Nc1cccnc1 | 16.3

Row | Structure (SMILES) | hERG current change (%, negative = inhibition) at 1uM [%]
70 | O=C(O)/C=C/c1ccc(S(=O)(=O)N2CCN(CCN3C(=O)C4C5C=CC(C5)C4C3=O)CC2)cc1 (stereo not drawn) | 13.9
71 | CCN(CC)CCN(C(=O)CCOc1ccccc1)c1nc2ccc(F)cc2s1.Cl | 2.28
72 | CN(C)c1ccc(-c2nnc(-c3cccs3)o2)cc1 | 17.6
73 | CCCCn1c(N)c(N(CC)C(=O)CSc2nnnn2-c2cc(C)ccc2C)c(=O)[nH]c1=O | 1.06
74 | O=C(OCC(=O)C12CC3CC(CC(C3)C1)C2)c1ccc(O)cc1O | 10.7
75 | CC(C)(CNC(=O)c1sc2cc(Cl)ccc2c1Cl)N1CCOCC1 | 7.23
76 | Cc1ccccc1NC(=S)NC(=O)CCc1ccccc1 | -0.0976
77 | CCC(Oc1ccccc1)C(=O)NCCCN1CCOCC1 (stereo not drawn) | 0.722
78 | COc1ccccc1/C=C/C(=O)c1ccc(Cl)cc1 | 1.15
79 | COc1ccc(-c2c[n+]3c(n2-c2ccccc2)SCC3)cc1.[Br-] | -6.21
80 | CC(OC(=O)CCN=C1NS(=O)(=O)c2ccccc21)C(=O)Nc1ccc(F)cc1Cl (stereo not drawn) | 7.57
81 | O=C(CN1CCN(C(=O)c2ccco2)CC1)Nc1cc(C(F)(F)F)ccc1Cl | -26.1
82 | CC1=C(C(=O)Nc2ccccn2)C(c2ccc(Cl)cc2)NC(=S)N1 (stereo not drawn) | 10.5
83 | CC(=O)N1CCCc2cc(S(=O)(=O)N3CCCC(C(=O)NCc4ccc(C)cc4)C3)ccc21 (stereo not drawn) | 10
84 | C[C@H](NC(=O)c1ccccc1Cl)C(=O)NCCc1ccc(S(N)(=O)=O)cc1 | 3.8
85 | O=C(c1ccco1)N1CCN(S(=O)(=O)c2cc(Cl)ccc2Cl)CC1 | 5.88
86 | CC(C)n1nnnc1SCC(=O)N1CCOCC1 | 19
87 | Nc1nccnc1C(=O)OCc1nc2sc3c(c2c(=O)[nH]1)CCCC3 | 11.3
88 | CCc1nnc(NC(=O)COC(=O)CN2C(=O)c3ccccc3C2=O)s1 | 9.74
89 | Cc1ccc(NC(=O)CN(C)C(=O)c2nn(C)c(=O)c3ccccc23)cc1 | -13.2
90 | CC(=O)Nc1cccc(NC(=O)CCN2C(=O)c3ccccc3S2(=O)=O)c1 | 6.03

From PMC4336329 (PLoS ONE, 2015)
